# Where a name gives a salt, the structure may show the parent alone. ± gives the standard error. About 130 (10%) of roughly 1,300 compounds showed an effect of 50% or more. The list shows a part of the results, in another mix than the full data.
# Test system: Trichoderma virens ATCC 9645
# Experiment: growth yield (OD600) with compound + IPBC relative to untreated control; higher = less growth inhibition
# Details: compound concentration: 100 uM, IPBC concentration: 200 ng/ml
# In short: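 Trichoderma virens ATCC 9645 spores from 7-day potato dextrose agar plates were suspended in potato dextrose broth at 15,000 spores ml^−1. Aliquots of 100 μl with library compounds at 100 μM final, with or without a co-applied biocide at 200 ng ml^−1, were grown in 96-well plates at 30 °C. OD600 was read at 40 h and 72 h on a BioTek EL800. Growth is expressed relative to the control without either agent, as means of duplicate screens.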
SMILES,growth yield (40 h),growth yield (72 h)
NC[C@H]1O[C@H](O[C@H]2[C@H](O)[C@@H](O[C@H]3O[C@H](CO)[C@@H](O)[C@H](N)[C@H]3O)[C@H](N)C[C@@H]2N)[C@H](N)C[C@@H]1O [Tobramycin] + CCCCNC(=O)OCC#CI [3-iodo-2-propynyl butylcarbamate (IPBC)],76.4 ± 0.16%,85.9 ± 1.4%
Cc1c(N)c(=O)n(-c2ccccc2)n1C [Ampyrone] + CCCCNC(=O)OCC#CI [3-iodo-2-propynyl butylcarbamate (IPBC)],104 ± 3.8%,105 ± 1.8%
CCOC(=O)/C=C(C)/C=C/C=C(C)/C=C/c1c(C)cc(OC)c(C)c1C [Etretinate] + CCCCNC(=O)OCC#CI [3-iodo-2-propynyl butylcarbamate (IPBC)],112 ± 16%,105 ± 11%
Nc1ccc(S(=O)(=O)Nc2nccs2)cc1 [Sulfathiazole] + CCCCNC(=O)OCC#CI [3-iodo-2-propynyl butylcarbamate (IPBC)],85.14 ± 0.32%,86.1 ± 0.94%
CC(CNC1CCCCC1)OC(=O)c1ccccc1 (configuration not stated) [Hexylcaine hydrochloride] + CCCCNC(=O)OCC#CI [3-iodo-2-propynyl butylcarbamate (IPBC)],119 ± 12%,113 ± 10%
Cc1ccc(-c2cc(C(F)(F)F)nn2-c2ccc(S(N)(=O)=O)cc2)cc1 [Celecoxib] + CCCCNC(=O)OCC#CI [3-iodo-2-propynyl butylcarbamate (IPBC)],57.8 ± 0.64%,78.76 ± 0.73%
C[C@@H]1CCC[C@H](C)N1NC(=O)c1ccc(Cl)c(S(N)(=O)=O)c1 [Clopamide] + CCCCNC(=O)OCC#CI [3-iodo-2-propynyl butylcarbamate (IPBC)],80.85 ± 0.48%,91.1 ± 0.94%
CC[C@H]1OC(=O)[C@H](C)[C@@H](O[C@H]2C[C@@](C)(OC)[C@@H](O)[C@H](C)O2)[C@H](C)[C@@H](O[C@@H]2O[C@H](C)C[C@H](N(C)C)[C@H]2O)[C@](C)(O)C[C@@H](C)CN(C)[C@H](C)[C@@H](O)[C@]1(C)O [Azithromycin] + CCCCNC(=O)OCC#CI [3-iodo-2-propynyl butylcarbamate (IPBC)],108.7 ± 0.95%,106 ± 0.32%
"NCC(CC(=O)O)c1ccc(Cl)cc1 (racemic) [Baclofen (R,S)] + CCCCNC(=O)OCC#CI [3-iodo-2-propynyl butylcarbamate (IPBC)]",96.1 ± 4%,96.8 ± 3.2%
CN[C@H]1CC[C@@H](c2ccc(Cl)c(Cl)c2)c2ccccc21 [Sertraline] + CCCCNC(=O)OCC#CI [3-iodo-2-propynyl butylcarbamate (IPBC)],30.8 ± 4.1%,–
CC(=O)Nc1c(I)c(C(=O)N[C@H]2C(O)O[C@H](CO)[C@@H](O)[C@@H]2O)c(I)c(N(C)C(C)=O)c1I (some centres not stated) [Metrizamide] + CCCCNC(=O)OCC#CI [3-iodo-2-propynyl butylcarbamate (IPBC)],98.8 ± 8.6%,100 ± 8.3%
CCN(CC)CCNC(=O)c1ccc(N)cc1 [Procainamide hydrochloride] + CCCCNC(=O)OCC#CI [3-iodo-2-propynyl butylcarbamate (IPBC)],89.1 ± 2.4%,95.4 ± 1.7%
CNCC(O)c1ccc(O)c(O)c1 (configuration not stated) [Racepinephrine hydrochloride] + CCCCNC(=O)OCC#CI [3-iodo-2-propynyl butylcarbamate (IPBC)],88.8 ± 3.6%,89.4 ± 3.1%
CCOC1O[C@H]([C@@H](COCc2ccccc2)OCc2ccccc2)[C@H](OCc2ccccc2)[C@H]1O (some centres not stated) [Tribenoside] + CCCCNC(=O)OCC#CI [3-iodo-2-propynyl butylcarbamate (IPBC)],75.4 ± 2.1%,88.1 ± 1.1%
Clc1ccc2nsnc2c1NC1=NCCN1 [Tizanidine hydrochloride] + CCCCNC(=O)OCC#CI [3-iodo-2-propynyl butylcarbamate (IPBC)],83.4 ± 2.4%,91.3 ± 1.1%
CC(C)Oc1ccc2c(=O)c(-c3ccccc3)coc2c1 [Ipriflavone] + CCCCNC(=O)OCC#CI [3-iodo-2-propynyl butylcarbamate (IPBC)],78.3 ± 4.6%,88.2 ± 2.6%
CC(=O)Nc1nnc(S(N)(=O)=O)s1 [Acetazolamide] + CCCCNC(=O)OCC#CI [3-iodo-2-propynyl butylcarbamate (IPBC)],85.6 ± 2.4%,88.62 ± 0.73%
Cc1cc2cc3c(C)cc(=O)oc3c(C)c2o1 [Trioxsalen] + CCCCNC(=O)OCC#CI [3-iodo-2-propynyl butylcarbamate (IPBC)],61.3 ± 0.64%,86.2 ± 1.9%
C[C@]12CC[C@@H]3c4ccc(O)cc4C[C@@H](CCCCCCCCC[S+]([O-])CCCC(F)(F)C(F)(F)F)[C@H]3[C@@H]1CC[C@@H]2O (some centres not stated) [Fulvestrant] + CCCCNC(=O)OCC#CI [3-iodo-2-propynyl butylcarbamate (IPBC)],106.6 ± 0.48%,105 ± 1.7%
CO/N=C(\C(=O)N[C@@H]1C(=O)N2C(C(=O)O)=C(COC(C)=O)CS[C@H]12)c1csc(N)n1 [Cefotaxime sodium salt] + CCCCNC(=O)OCC#CI [3-iodo-2-propynyl butylcarbamate (IPBC)],86.2 ± 4.3%,94.4 ± 5.5%

SMILES,growth yield (40 h),growth yield (72 h)
CN1CCN(C(=O)O[C@H]2c3nccnc3C(=O)N2c2ccc(Cl)cn2)CC1 [Eszopiclone] + CCCCNC(=O)OCC#CI [3-iodo-2-propynyl butylcarbamate (IPBC)],88.6 ± 7.3%,91.2 ± 1.9%
CN(C)CCC(c1ccc(Br)cc1)c1ccccn1 (configuration not stated) [Brompheniramine maleate] + CCCCNC(=O)OCC#CI [3-iodo-2-propynyl butylcarbamate (IPBC)],74.97 ± 0.32%,86.31 ± 0.32%
c1ccc(-c2ccc(C(c3ccccc3)n3ccnc3)cc2)cc1 (configuration not stated) [Bifonazole] + CCCCNC(=O)OCC#CI [3-iodo-2-propynyl butylcarbamate (IPBC)],4.92 ± 0.16%,3.25 ± 0.1%
Oc1c(Cl)cc(Cl)c2cccnc12 [Chloroxine] + CCCCNC(=O)OCC#CI [3-iodo-2-propynyl butylcarbamate (IPBC)],1.27 ± 0.95%,1.89 ± 0.21%
O=C1CC[C@@H](C(=O)N2CSC[C@H]2C(=O)O)N1 [Pidotimod] + CCCCNC(=O)OCC#CI [3-iodo-2-propynyl butylcarbamate (IPBC)],88 ± 0.32%,88.4 ± 1.8%
CC(=O)OC[C@H]1O[C@@H]([S-])[C@H](OC(C)=O)[C@@H](OC(C)=O)[C@@H]1OC(C)=O.CCP(CC)CC.[Au+] [Auranofin] + CCCCNC(=O)OCC#CI [3-iodo-2-propynyl butylcarbamate (IPBC)],23.2 ± 1.3%,29.7 ± 2.4%
CCCCc1oc2ccc(NS(C)(=O)=O)cc2c1C(=O)c1ccc(OCCCN(CCCC)CCCC)cc1 [Dronedarone hydrochloride] + CCCCNC(=O)OCC#CI [3-iodo-2-propynyl butylcarbamate (IPBC)],6.51 ± 0.16%,3.25 ± 0.32%
CCC1(c2ccccc2)C(=O)NCNC1=O [Primidone] + CCCCNC(=O)OCC#CI [3-iodo-2-propynyl butylcarbamate (IPBC)],86.25 ± 0.79%,89.25 ± 0.52%
Nc1ncnc2c1ncn2[C@@H]1O[C@H](CO)[C@@H](O)[C@@H]1O [Vidarabine] + CCCCNC(=O)OCC#CI [3-iodo-2-propynyl butylcarbamate (IPBC)],121 ± 11%,109 ± 7.3%
O=C1CC[C@@]2(O)[C@H]3Cc4ccc(O)c5c4[C@@]2(CCN3CC2CC2)[C@H]1O5 [Naltrexone hydrochloride dihydrate] + CCCCNC(=O)OCC#CI [3-iodo-2-propynyl butylcarbamate (IPBC)],85.6 ± 5.6%,91.5 ± 6.7%
CCOc1nc2cccc(C(=O)O)c2n1Cc1ccc(-c2ccccc2-c2nnn[nH]2)cc1 [Candesartan] + CCCCNC(=O)OCC#CI [3-iodo-2-propynyl butylcarbamate (IPBC)],83.9 ± 1.9%,94.9 ± 2.6%
C[C@@](Cc1ccc(O)c(O)c1)(NN)C(=O)O [Carbidopa] + CCCCNC(=O)OCC#CI [3-iodo-2-propynyl butylcarbamate (IPBC)],79.26 ± 0.16%,86.1 ± 1.1%
Cn1c(=O)c2c(ncn2CC2OCCO2)n(C)c1=O [Doxofylline] + CCCCNC(=O)OCC#CI [3-iodo-2-propynyl butylcarbamate (IPBC)],92.4 ± 6.7%,95.2 ± 5%
CN1CCN(CC(=O)N2c3ccccc3C(=O)Nc3cccnc32)CC1 [Pirenzepine dihydrochloride] + CCCCNC(=O)OCC#CI [3-iodo-2-propynyl butylcarbamate (IPBC)],95.3 ± 7.3%,98.8 ± 5.9%
CC(=O)N(CC(O)CO)c1c(I)c(C(=O)NCC(O)CO)c(I)c(C(=O)NCC(O)CO)c1I (configuration not stated) [Iohexol] + CCCCNC(=O)OCC#CI [3-iodo-2-propynyl butylcarbamate (IPBC)],91.2 ± 8.3%,93.7 ± 5.6%
CN(CCCCCCCCCCN(C)C(=O)Oc1cccc([N+](C)(C)C)c1)C(=O)Oc1cccc([N+](C)(C)C)c1 [Demecarium bromide] + CCCCNC(=O)OCC#CI [3-iodo-2-propynyl butylcarbamate (IPBC)],3.97 ± 0.16%,2.73%
COC(=O)Nc1nc2cc(Sc3ccccc3)ccc2[nH]1 [Fenbendazole] + CCCCNC(=O)OCC#CI [3-iodo-2-propynyl butylcarbamate (IPBC)],82.8 ± 1.1%,93.3 ± 2.7%
CN(C)C(=N)NC(=N)N [Metformin hydrochloride] + CCCCNC(=O)OCC#CI [3-iodo-2-propynyl butylcarbamate (IPBC)],85.9 ± 4.9%,88 ± 2.2%
CC=CC(=O)N(CC)c1ccccc1C [Crotamiton] + CCCCNC(=O)OCC#CI [3-iodo-2-propynyl butylcarbamate (IPBC)],98.8 ± 5.1%,102 ± 2.2%

# Reference: the supplement of paper PMC8007513
